Some of the results follow.

We go through 29 compounds from the antibiotic and cytotoxicity screens of Wong et al. (2023).

One assay concerns HSkMC. Briefly: cytotoxicity call (relative viability < 0.9). The conditions noted are these: 10 µM.
Another assay relates to HepG2. Briefly: cytotoxicity call (relative viability < 0.9). To be noted: 10 µM.
In another assay the test system is S. aureus RN4220. In words: growth inhibition call (relative growth <= 0.2). The conditions noted are these: 50 µM.

With `C[C@@H]1CCCCO[C@@H](CN(C)S(=O)(=O)c2ccccc2)[C@@H](C)CN([C@H](C)CO)C(=O)c2cc(NC(=O)CCC(F)(F)F)ccc2O1`, the cytotoxicity call with HSkMC and in the assay with HepG2 was “inactive” in each case. For the same compound, in the assay on S. aureus RN4220, the growth inhibition call is “inactive”.
Take `C[C@H]1CN([C@@H](C)CO)C(=O)c2cc(NC(=O)Cn3cnnn3)ccc2O[C@@H]1CN(C)Cc1ccc(-c2ccccc2)cc1`: the cytotoxicity call in the assay with HSkMC and in the assay on HepG2 was “inactive” each time. Also, in the assay on S. aureus RN4220, the growth inhibition call was “inactive”.
`CCCNC(=O)N1C[C@@H](C)[C@@H](OC)CN(C)C(=O)c2ccc(NS(=O)(=O)CC(F)(F)F)cc2OC[C@H]1C`: the cytotoxicity call in the assay on HSkMC and with HepG2 was “inactive” throughout. For the same compound, the growth inhibition call in the assay with S. aureus RN4220 is “inactive”.
Regarding `C[C@@H]1CN([C@H](C)CN(C)C)C(=O)c2cc(NC(=O)Cc3cn(C)c4ccccc34)ccc2O[C@H]1CN(C)S(=O)(=O)c1ccc(Cl)cc1`, the cytotoxicity call in the assay with HSkMC and in the assay on HepG2 was “active” throughout. For the same compound, in the assay with S. aureus RN4220, the growth inhibition call was “inactive”.
On to `CCc1nc2ccc(C(=O)N3CCN(c4ccccc4)CC3)cn2c1N(CC)Cc1cccc(Br)c1`, for which the cytotoxicity call in the assay with HSkMC and with HepG2 was “inactive” each time. In addition, the growth inhibition call in the assay with S. aureus RN4220 is “inactive”.
As to `C[C@H]1CN([C@@H](C)CO)C(=O)c2cc(/C=C/c3ccccc3)cnc2O[C@H]1CN(C)C(=O)CN1CCOCC1`, the cytotoxicity call with HSkMC and with HepG2 was “inactive” throughout. Also, the growth inhibition call with S. aureus RN4220 was “inactive”.
In the case of `C[C@@H]1CCCCO[C@@H](CN(C)Cc2ccccc2)[C@H](C)CN([C@H](C)CO)C(=O)c2cc(NS(=O)(=O)c3ccc(Cl)cc3)ccc2O1`, the cytotoxicity call with HSkMC and in the assay with HepG2 was “inactive” throughout. In the assay on S. aureus RN4220, the growth inhibition call was “inactive”.
Regarding `Cc1ccc(S(=O)(=O)N(C)C[C@H]2OCCCC[C@@H](C)Oc3ccc(NS(C)(=O)=O)cc3C(=O)N([C@H](C)CO)C[C@H]2C)cc1`, the cytotoxicity call with HSkMC and with HepG2 was “inactive” each time. Moreover, in the assay on S. aureus RN4220, the growth inhibition call was “inactive”.
With `C[C@@H]1O[C@@H](O[C@@H]2[C@@H](O)[C@H](OCCc3ccc(O)c(O)c3)O[C@H](COC(=O)/C=C/c3ccc(O)c(O)c3)[C@H]2O)[C@H](O)[C@H](O)[C@H]1O`, the cytotoxicity call in the assay on HSkMC and with HepG2 was “inactive” throughout. In addition, the growth inhibition call with S. aureus RN4220 is “inactive”.
On to `C[C@H](CO)N1C[C@H](C)[C@H](CN(C)Cc2ccc(Oc3ccccc3)cc2)Oc2cc(Br)ccc2S1(=O)=O`, for which the cytotoxicity call in the assay on HSkMC and in the assay with HepG2 was “inactive” in each case. In the assay on S. aureus RN4220, the growth inhibition call was “inactive”.
`O=C1CNC(=O)CN1`: the cytotoxicity call in the assay on HSkMC and in the assay with HepG2 was “inactive” in each case. The growth inhibition call in the assay on S. aureus RN4220 was “inactive”.
Regarding `COc1ccccc1CNC(=O)C[C@@H]1CC[C@H]2[C@@H](COC[C@H](O)CN2S(=O)(=O)c2ccc(C)cc2)O1`, the cytotoxicity call in the assay on HSkMC and in the assay on HepG2 was “inactive” throughout. Further, the growth inhibition call in the assay with S. aureus RN4220 is “inactive”.
On to `C[C@H](CO)N1C[C@H](C)[C@@H](CN(C)C(=O)C2CCC2)Oc2cc(C#Cc3ccncc3)ccc2S1(=O)=O`, for which the cytotoxicity call with HSkMC is “inactive”. The cytotoxicity call with HepG2 was “active”. Further, in the assay with S. aureus RN4220, the growth inhibition call was “inactive”.
`C[C@@H]1CN([C@H](C)CO)C(=O)c2c(c3ccccc3n2C)-c2ccccc2CO[C@H]1CN(C)S(=O)(=O)c1ccc(C(F)(F)F)cc1`: the cytotoxicity call with HSkMC was “active”. The cytotoxicity call in the assay on HepG2 is “inactive”. In addition, in the assay on S. aureus RN4220, the growth inhibition call is “inactive”.
On to `COCC(=O)Nc1ccc2c(c1)C(=O)N(C)C[C@H](OC)[C@@H](C)CN(C(=O)c1ccccc1F)[C@H](C)CO2`, for which the cytotoxicity call in the assay with HSkMC and in the assay on HepG2 was “inactive” throughout. Moreover, in the assay with S. aureus RN4220, the growth inhibition call is “inactive”.
As to `CC(=O)NCC(=O)N1C[C@H](N(C)Cc2cncnc2)[C@@H]2OCCC[C@@H]21`, the cytotoxicity call in the assay with HSkMC and in the assay on HepG2 was “inactive” each time. Moreover, the growth inhibition call with S. aureus RN4220 is “inactive”.
Consider `O=C(C[C@@H]1C=C[C@H](NC(=O)Nc2ccc3c(c2)OCO3)[C@@H](CO)O1)NCCCN1CCOCC1`, for which the cytotoxicity call with HSkMC and in the assay with HepG2 was “inactive” in each case. Besides, in the assay with S. aureus RN4220, the growth inhibition call was “inactive”.
As for `CCC[C@@H](O)C#Cc1cnc2c(c1)C(=O)N([C@H](C)CO)C[C@H](C)[C@H](CN(C)S(=O)(=O)c1ccc(C#N)cc1)O2`, the cytotoxicity call in the assay with HSkMC and in the assay with HepG2 was “inactive” throughout. For the same compound, the growth inhibition call in the assay with S. aureus RN4220 was “inactive”.
Take `C[C@H](CO)N1C[C@H](C)[C@@H](CN(C)Cc2ccc(-c3ccccc3)cc2)Oc2ccc(NC(=O)Nc3ccc(F)cc3)cc2C1=O`: the cytotoxicity call in the assay on HSkMC and in the assay on HepG2 was “inactive” throughout. Moreover, in the assay on S. aureus RN4220, the growth inhibition call is “inactive”.
In the case of `CNC[C@@H](O)CS(=O)(=O)c1ccccc1`, the cytotoxicity call in the assay on HSkMC and in the assay on HepG2 was “inactive” each time. In addition, in the assay on S. aureus RN4220, the growth inhibition call is “inactive”.
As to `COc1cc2c(cc1OC)CN(C(=O)[C@H]1[C@@H]3C(=O)O[C@@H](c4ccccc4)[C@@H](c4ccccc4)N3[C@@H](c3ccc(O)cc3)[C@]13C(=O)Nc1ccccc13)CC2`, the cytotoxicity call in the assay with HSkMC and with HepG2 was “inactive” throughout. Besides, the growth inhibition call in the assay with S. aureus RN4220 was “inactive”.
`O=C(C[C@H]1C[C@H]2c3cc(NC(=O)c4ccc5c(c4)OCO5)ccc3O[C@H]2[C@H](CO)O1)NCc1ccc(Oc2ccccc2)cc1`: the cytotoxicity call in the assay with HSkMC and in the assay on HepG2 was “active” in each case. For the same compound, the growth inhibition call in the assay on S. aureus RN4220 was “inactive”.
Regarding `CCS(=O)(=O)Nc1ccc2c(c1)C(=O)N(C)C[C@@H](OC)[C@H](C)CN(CCC(F)(F)F)[C@H](C)CO2`, the cytotoxicity call with HSkMC and in the assay on HepG2 was “inactive” in each case. Also, in the assay on S. aureus RN4220, the growth inhibition call is “inactive”.
Consider `CCCC1CCC(c2ccc(OC(=O)c3ccco3)cc2)CC1` (configuration not stated), for which the cytotoxicity call in the assay with HSkMC and in the assay on HepG2 was “inactive” each time. For the same compound, the growth inhibition call in the assay on S. aureus RN4220 was “inactive”.
Consider `Cc1ccc(S(=O)(=O)N(C)C[C@H]2Oc3c(NS(=O)(=O)c4ccccc4)cccc3C(=O)N([C@@H](C)CO)C[C@@H]2C)cc1`, for which the cytotoxicity call in the assay with HSkMC and in the assay on HepG2 was “inactive” throughout. The growth inhibition call in the assay with S. aureus RN4220 is “inactive”.
As for `Cc1ccc(-c2ccc(N)cc2)cc1`, the cytotoxicity call in the assay on HSkMC (human skeletal muscle cells) and in the assay with HepG2 was “inactive” throughout. Further, in the assay on S. aureus RN4220, the growth inhibition call was “inactive”.
Take `C[C@@H]1CN([C@@H](C)CO)C(=O)c2cc(NC(=O)C3CCCCC3)ccc2O[C@@H](C)CCCCO[C@@H]1CN(C)S(=O)(=O)c1cccs1`: the cytotoxicity call in the assay with HSkMC and with HepG2 was “inactive” in each case. For the same compound, the growth inhibition call with S. aureus RN4220 is “inactive”.
On to `CCN1[C@@H]2c3ccc(-c4cccnc4)c(=O)n3C[C@@H]2[C@@H](CO)[C@@H]1C(=O)NCCc1cn(C)cn1`, for which the cytotoxicity call with HSkMC and in the assay on HepG2 was “inactive” throughout. Further, the growth inhibition call in the assay with S. aureus RN4220 is “inactive”.
Regarding `COc1ccc(CN(C)C[C@@H]2OCCCC[C@@H](C)Oc3ccc(NC(=O)NC(C)C)cc3C(=O)N([C@H](C)CO)C[C@H]2C)cc1`, the cytotoxicity call with HSkMC and in the assay with HepG2 was “inactive” in each case. Further, the growth inhibition call in the assay on S. aureus RN4220 is “inactive”.
